Test results reported in the supplement of paper PMC4967469.
Lines with a small IC50 respond at low doses; a fit beyond the top or the lowest dose is shown as a bound at that dose. AUC sums up the same curve from the lowest dose to the 256-fold higher top dose: 1 means no effect, lower means more sensitive. Where the top dose is marked as inferred, it is not printed in the source and was worked back from the curve model. For some of these results: Where an entry number is given, a second screen of the drug exists; the two often differ.

These cell lines were tested with CC(C)=CC[C@@H](O)C1=CC(=O)c2c(O)ccc(O)c2C1=O [Shikonin] (assay: Viability of human cancer cell lines after 72 h of drug (GDSC screen)). Conditions: top dose 16 µM; top dose inferred.
Description: (§1)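 Human cancer cell lines in 384-well plates, medium with 10% serum, drug for 72 h over a 256-fold dose range (nine 2-fold or five 4-fold steps up to the top dose). Adherent lines were fixed and stained with the nucleic acid dye Syto60, suspension lines read with resazurin; signal relative to control wells, capped at 0 and 100%. One two-parameter sigmoid per drug and line, fitted in a mixed model over all curves with the slope shared within a line.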

Cell Line	AUC	IC50 [µM]
HCC-827 (lung adenocarcinoma, adherent)	0.76	6.46
HDQ-P1 (breast, adherent)	0.495	0.964
HN (head and neck, adherent)	0.51	1.07
HO-1-u-1 (head and neck, adherent)	0.541	1.28
HOS (osteosarcoma, adherent)	0.228	0.192
HT-3 (cervix, adherent)	0.471	0.835
HT-1376 (bladder, adherent)	0.427	0.609
Hep 3B2_1-7 (liver, adherent)	0.301	0.277
Hs633T (fibrosarcoma, adherent)	0.196	0.157
Hs746T (stomach, adherent)	0.718	5.23
HuCCT1 (biliary tract, adherent)	0.329	0.314
HuO-3N1 (osteosarcoma, adherent)	0.737	6.03
IPC-298 (melanoma, adherent)	0.804	7.86
JHH-2 (liver, adherent)	0.46	0.774
JHH-4 (liver, adherent)	0.388	0.493
JHH-7 (liver, adherent)	0.277	0.245
KMRC-1 (kidney, adherent)	0.395	0.506

Cell Line	AUC	IC50 [µM]
KON (head and neck, adherent)	0.342	0.367
KP-2 (pancreas, adherent)	0.571	1.59
KP-3 (pancreas, adherent)	0.594	1.9
KYM-1 (rhabdomyosarcoma, adherent)	0.461	0.797
KYSE-520 (oesophagus, adherent)	0.399	0.48
LCLC-103H (large cell lung carcinoma, adherent)	0.291	0.275
LN-18 (glioma, adherent)	0.611	1.89
LN-229 (glioma, adherent)	0.452	0.74
LNZTA3WT4 (glioma, adherent)	0.454	0.752
LU-135 (small cell lung carcinoma, suspension)	0.477	0.873
MC-IXC (neuroblastoma, adherent)	0.364	0.467
MDA-MB-361 (breast, adherent)	0.526	1.18
MDA-MB-453 (breast, adherent)	0.62	2.23
MEL-JUSO (melanoma, adherent)	0.348	0.36
MG-63 (osteosarcoma, adherent)	0.267	0.192
MS751 (cervix, adherent)	0.522	1.14
NCI-H358 (lung adenocarcinoma, adherent)	0.408	0.544

Each cell line was assayed with Cc1cccc(-c2[nH]c(C(C)(C)C)nc2-c2ccc3nccnc3c2)n1 [SB-525334] in the same assay as above. Conditions: top dose 20 µM; top dose inferred.
Description: as §1

Cell Line	AUC	IC50 [µM]
HCC-827 (lung adenocarcinoma, adherent)	0.96	> 20
HDQ-P1 (breast, adherent)	0.985	> 20
HN (head and neck, adherent)	0.989	> 20
HO-1-u-1 (head and neck, adherent)	0.895	> 20
HOS (osteosarcoma, adherent)	0.988	> 20
HT-3 (cervix, adherent)	0.967	> 20
HT-1376 (bladder, adherent)	0.985	> 20
Hep 3B2_1-7 (liver, adherent)	0.94	> 20
Hs633T (fibrosarcoma, adherent)	0.976	> 20
Hs746T (stomach, adherent)	0.969	> 20
HuCCT1 (biliary tract, adherent)	0.98	> 20
HuO-3N1 (osteosarcoma, adherent)	0.934	> 20
IPC-298 (melanoma, adherent)	0.924	> 20
JHH-2 (liver, adherent)	0.983	> 20
JHH-4 (liver, adherent)	0.838	13.5
JHH-7 (liver, adherent)	0.952	> 20
KMRC-1 (kidney, adherent)	0.98	> 20

Cell Line	AUC	IC50 [µM]
KON (head and neck, adherent)	0.987	> 20
KP-2 (pancreas, adherent)	0.977	> 20
KP-3 (pancreas, adherent)	0.952	> 20
KYM-1 (rhabdomyosarcoma, adherent)	0.978	> 20
KYSE-520 (oesophagus, adherent)	0.965	> 20
LCLC-103H (large cell lung carcinoma, adherent)	0.982	> 20
LN-18 (glioma, adherent)	0.989	> 20
LN-229 (glioma, adherent)	0.953	> 20
LNZTA3WT4 (glioma, adherent)	0.961	> 20
LU-135 (small cell lung carcinoma, suspension)	0.919	> 20
MC-IXC (neuroblastoma, adherent)	0.823	7.91
MDA-MB-361 (breast, adherent)	0.942	> 20
MDA-MB-453 (breast, adherent)	0.883	> 20
MEL-JUSO (melanoma, adherent)	0.545	1.68
MG-63 (osteosarcoma, adherent)	0.983	> 20
MS751 (cervix, adherent)	0.977	> 20
NCI-H358 (lung adenocarcinoma, adherent)	0.575	2.06

The cell lines below were run with Cc1cc(N2CCOCC2)cc2[nH]c(-c3c(NC[C@@H](O)c4cccc(Cl)c4)cc[nH]c3=O)nc12 [BMS-536924] in the same assay as above. Conditions: top dose 4 µM; screen: GDSC drug entry 1091; top dose inferred.
Description: as §1

Cell Line	AUC	IC50 [µM]
HCC-827 (lung adenocarcinoma, adherent)	0.924	> 4
HDQ-P1 (breast, adherent)	0.968	> 4
HN (head and neck, adherent)	0.909	> 4
HO-1-u-1 (head and neck, adherent)	0.926	> 4
HOS (osteosarcoma, adherent)	0.917	> 4
HT-3 (cervix, adherent)	0.755	1.37
HT-1376 (bladder, adherent)	0.838	3.43
Hep 3B2_1-7 (liver, adherent)	0.723	1.07
Hs633T (fibrosarcoma, adherent)	0.898	3.39
Hs746T (stomach, adherent)	0.978	> 4
HuCCT1 (biliary tract, adherent)	0.98	> 4
HuO-3N1 (osteosarcoma, adherent)	0.917	> 4
IPC-298 (melanoma, adherent)	0.961	> 4
JHH-2 (liver, adherent)	0.941	> 4
JHH-4 (liver, adherent)	0.893	> 4
JHH-7 (liver, adherent)	0.858	2.97
KMRC-1 (kidney, adherent)	0.96	> 4

Cell Line	AUC	IC50 [µM]
KON (head and neck, adherent)	0.932	> 4
KP-2 (pancreas, adherent)	0.788	1.91
KP-3 (pancreas, adherent)	0.869	> 4
KYM-1 (rhabdomyosarcoma, adherent)	0.987	> 4
KYSE-520 (oesophagus, adherent)	0.964	> 4
LCLC-103H (large cell lung carcinoma, adherent)	0.987	> 4
LN-18 (glioma, adherent)	0.983	> 4
LN-229 (glioma, adherent)	0.978	> 4
LNZTA3WT4 (glioma, adherent)	0.973	> 4
LU-135 (small cell lung carcinoma, suspension)	0.98	> 4
MC-IXC (neuroblastoma, adherent)	0.961	> 4
MDA-MB-361 (breast, adherent)	0.945	> 4
MDA-MB-453 (breast, adherent)	0.98	> 4
MEL-JUSO (melanoma, adherent)	0.825	2.78
MG-63 (osteosarcoma, adherent)	0.848	3.71
MS751 (cervix, adherent)	0.939	> 4
NCI-H358 (lung adenocarcinoma, adherent)	0.848	3.48

What follows are cell lines tested with NC(=O)c1ccc(N(C(N)=O)c2c(F)cccc2F)nc1-c1ccc(F)cc1F [VX-702] in the same assay as above. Conditions: top dose 2 µM; top dose inferred.
Description: as §1

Cell Line	AUC	IC50 [µM]
HCC-827 (lung adenocarcinoma, adherent)	0.979	> 2
HDQ-P1 (breast, adherent)	0.985	> 2
HN (head and neck, adherent)	0.938	> 2
HO-1-u-1 (head and neck, adherent)	0.986	> 2
HOS (osteosarcoma, adherent)	0.989	> 2
HT-3 (cervix, adherent)	0.987	> 2
HT-1376 (bladder, adherent)	0.984	> 2
Hep 3B2_1-7 (liver, adherent)	0.986	> 2
Hs633T (fibrosarcoma, adherent)	0.987	> 2
Hs746T (stomach, adherent)	0.969	> 2
HuCCT1 (biliary tract, adherent)	0.984	> 2
HuO-3N1 (osteosarcoma, adherent)	0.979	> 2
IPC-298 (melanoma, adherent)	0.984	> 2
JHH-2 (liver, adherent)	0.985	> 2
JHH-4 (liver, adherent)	0.987	> 2
JHH-7 (liver, adherent)	0.989	> 2

Cell Line	AUC	IC50 [µM]
KMRC-1 (kidney, adherent)	0.983	> 2
KON (head and neck, adherent)	0.987	> 2
KP-2 (pancreas, adherent)	0.979	> 2
KP-3 (pancreas, adherent)	0.984	> 2
KYM-1 (rhabdomyosarcoma, adherent)	0.989	> 2
KYSE-520 (oesophagus, adherent)	0.977	> 2
LCLC-103H (large cell lung carcinoma, adherent)	0.989	> 2
LN-18 (glioma, adherent)	0.994	> 2
LN-229 (glioma, adherent)	0.987	> 2
LNZTA3WT4 (glioma, adherent)	0.989	> 2
LU-135 (small cell lung carcinoma, suspension)	0.992	> 2
MC-IXC (neuroblastoma, adherent)	0.996	> 2
MDA-MB-361 (breast, adherent)	0.984	> 2
MDA-MB-453 (breast, adherent)	0.984	> 2
MEL-JUSO (melanoma, adherent)	0.982	> 2
MG-63 (osteosarcoma, adherent)	0.97	> 2
